From the RNAGym collection of RNA variant scans (doi:10.1073/pnas.2313332121) come the findings set out here.

Variants at the floor of the assay are shown more often than the library holds them.

B1: TPR 5TU (parent)
chain: GGAUCUUCUCGAUCUAACAAAAAAGACAAAUCUGCCACAAAGCUUGAGAGCAUCUUCGGAUGCAGAGGCGGCAGCCUUCGGUGGCGCGAUAGCGCCAACGUUCUCAACUAUGACACGCAAAACGCGUGCUCCGUUGAAUGGAGUUUAUCAUG

Variants of B1 are the subject of this data set. The data set can be described thus: polymerase ribozyme fitness, log enrichment relative to wild type (log ratio); higher = more active; in vitro selection for triplet polymerase activity. In outline: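 Mutant libraries were PCR-built and transcribed for each subunit of a heterodimeric triplet polymerase ribozyme and selected for one round in triplicate at −7 °C, frozen, before gel excision of extended constructs and streptavidin-bead capture. Input and output libraries were Illumina-sequenced, keeping genotypes with ≥10 input reads and ≥1 read per output. Fitness is a logarithmic ratio of genotype to wild-type enrichment, in base 2, using inverse-variance-weighted replicate averages.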
Consider A22U A60U C79A C87A, for which the “polymerase ribozyme fitness (log ratio)” value is no more than -4.2. Take A22G A52U G84A C123A: the “polymerase ribozyme fitness (log ratio)” value is -2.11.

Consider A23C C38U A39U A41C U145G, for which the “polymerase ribozyme fitness (log ratio)” value was no more than -4.2. As for A22U U44G U45A C75U C95G C96U G140U, the figure is no more than -4.2.

For the variant A21G C38U, the “polymerase ribozyme fitness (log ratio)” value amounted to 0.63.

Consider A22C C35G U44A A60G C76A C95U, for which the “polymerase ribozyme fitness (log ratio)” value is no more than -4.2. As for A22G A52U C85U U109G, the figure is -3.97; as for A22C A39C U53A G68A A91U U146A, no more than -4.2; as for A23C A52G C96A U144G, no more than -4.2. On to A22C G42A G70C G94A A106C A115U, for which the “polymerase ribozyme fitness (log ratio)” value was no more than -4.2. For A22G C85G, the “polymerase ribozyme fitness (log ratio)” value was -2.32.

In the case of A22G C85U, the “polymerase ribozyme fitness (log ratio)” value was -0.836. As for A22U C69G C72G G83C G133C, the figure is no more than -4.2. As for A21U A40G G70A A91U C93G C125G, the figure is no more than -4.2. As for A21G C114U, the figure is -1.69; as for A22G U77A, no more than -4.2. As to A23C A29G C85A A120G, the “polymerase ribozyme fitness (log ratio)” value was no more than -4.2.

Regarding A21G G46U, the “polymerase ribozyme fitness (log ratio)” value was determined as 0.452. As for A22U A29C G50A U56A G84A C95G, the figure is no more than -4.2; as for A22U C27U C36U A98U, -3.64; as for A22U A28U U31A A39U A40C A41U A142U G152U, no more than -4.2. Regarding A21U A41G C95A C96A, the “polymerase ribozyme fitness (log ratio)” value was -0.65. As for A22G A39G G88A A122U U148A, the figure is no more than -4.2; as for A22U U45A G68A A122G G140U U146A, no more than -4.2. As for A22C U56A C87G U101G, the figure is no more than -4.2. As for A23C C38U G50U U55A U56A G88A A106G G141A U144G, the figure is no more than -4.2; as for A22U U148A, -2.76. As to A22U A24G U33G U101G A107U, the “polymerase ribozyme fitness (log ratio)” value was no more than -4.2. As for A23G A39G G42C U101G, the figure is no more than -4.2. As for A21U A22U G42A G70C C93U G140C G152U, the figure is no more than -4.2. As for A21G U31A C95A, the figure is 0.669. In the case of A22C A28U A121U, the “polymerase ribozyme fitness (log ratio)” value was no more than -4.2.

A21U C51U G74A A119U: the “polymerase ribozyme fitness (log ratio)” value was no more than -4.2. As for A22C C57A A106G G141C, the figure is -0.358. As for A22C A29G G84A A97U A115C G141A, the figure is no more than -4.2. On to A21U C72U C79U G94C U146A, for which the “polymerase ribozyme fitness (log ratio)” value was no more than -4.2. As for A22U C27G A73C C96U U145G, the figure is no more than -4.2; as for A23C C54U U56A G71A G80C A121G, no more than -4.2; as for A21U C63A C85U U90A G94A C103U G143U, no more than -4.2. As for A23C G46C A47G G84U C87A C93U U109G, the figure is no more than -4.2; as for A21U U44G C85G C93G A97C, no more than -4.2; as for A21G G74C C75A C95U, no more than -4.2. As for A21U A24C C79U G80C C85U C93U, the figure is no more than -4.2; as for A22U A49U U82A G83U G136C, no more than -4.2; as for A21U G141U, 1.9.

As to A21U A47U C93U, the “polymerase ribozyme fitness (log ratio)” value is -0.679. As for A22C G58C G70U U134C, the figure is -3.68; as for A22C A24G A28C C51A G65A C87A C129G C131U, no more than -4.2; as for A23C U44G G81C A91G C93A C103A G117A G152C, no more than -4.2. As for A22U A30U A73U G88A C123U, the figure is no more than -4.2; as for A21G U139A, -3.9. As for A23C C38U G67C G140A, the figure is no more than -4.2; as for A23C C96A C105A U148C, no more than -4.2.

For A21U G34U C51U G86A A89U U145G, the “polymerase ribozyme fitness (log ratio)” value is no more than -4.2. As for A23C A37C U45A C54U C76G C95U A106U C108U, the figure is no more than -4.2. As for A22C U55G A60G U101A C118G, the figure is -0.937; as for A23C G84U C85A C93G G124A, no more than -4.2. As for A22C G68U G83A G117A, the figure is no more than -4.2; as for A21G C27U G65U G83U, no more than -4.2. With A22U U33G A52C C54U C96G, the “polymerase ribozyme fitness (log ratio)” value is no more than -4.2. With A23G A40G G50U C76A G84C, the “polymerase ribozyme fitness (log ratio)” value was no more than -4.2. As for A22U G46C A73U, the figure is -3.61; as for A22U C36U G74C G92A A119U A120G G126C G141U, no more than -4.2; as for A21U A60U C103G C108U A142G U148C, no more than -4.2.

On to A23C A41U G84C C85G C95U, for which the “polymerase ribozyme fitness (log ratio)” value is no more than -4.2. As for A22U A121U A137C A142C, the figure is no more than -4.2; as for A21U C54U U146A, -0.081; as for A23G A29U U61G C99U, no more than -4.2. As for A23C C35G G58A C95A C99A C149U, the “polymerase ribozyme fitness (log ratio)” value was no more than -4.2. As for A22G C72G C87U C93A C99A, the figure is no more than -4.2. With A22G C54A A60C U78G U90G A91G C116U G143A, the “polymerase ribozyme fitness (log ratio)” value was no more than -4.2. A21U A24G A37U G80C: the “polymerase ribozyme fitness (log ratio)” value was no more than -4.2. On to A23G A29G G46U G68U C85A, for which the “polymerase ribozyme fitness (log ratio)” value is no more than -4.2. As for A21G U33G C63U G67U C79G C87A A120U, the figure is no more than -4.2. Consider A23C C51A C93U, for which the “polymerase ribozyme fitness (log ratio)” value was no more than -4.2. As for A21U C43U, the figure is no more than -4.2; as for A23C A60U G88C C93U, no more than -4.2. As for A23C A30G U55G C96A G117U, the figure is no more than -4.2; as for A21U U104C, 0.212; as for A21G G42C C63U A89U C99A A106G A138C, no more than -4.2. As for A21U C57G G83A C85U G88U G124U C125U G136A, the figure is no more than -4.2; as for A22U A28C G81C G100U, no more than -4.2. Take A21U C75A C125A A137C U144G: the “polymerase ribozyme fitness (log ratio)” value was no more than -4.2.
